This passage reports survival results from PubChem BioAssay AID463173 (ICCB-Longwood Screening Facility, Harvard Medical School, 2010).

Structures are written as SMILES. Several values for one entry are separate records, joined by “and”; a condition that tells them apart may be missing. Identical values can stand only once. The whole screen tested about 52,000 compounds, of which about 4,300 (8.3%) were called active. Rule as the data show it: active = survival mostly below about 52% (no sharp cut-off); inactive = mostly above about 56%. This is one part of the list. A structure can be active in one record and inactive in another.

This test relates to DeltatarO mutant. Nature of the test: S. aureus survival, RN4220 and DeltatarO strains – OD600, teichoic acid synthesis inhibitors, primary screen (AID 463173). The conditions noted are these: S. aureus RN4220 wild type/DeltatarO growth, OD600, 18 h, stronger effect = lower value, screened at 18.75 µg/mL (by protocol).
Consider `COc1ccc(CCNc2ncnc3onc(-c4ccc(Cl)cc4)c23)c(OC)c1`, for which the survival was inactive: 86%.
Turning to `CCc1ccc(NC(=O)CN2C(=O)C3CCCN3c3ccc(S(=O)(=O)N(CC)CC)cc32)cc1` (configuration not stated), the survival was inactive: 109%.
Regarding `Cn1cc(S(=O)(=O)N2CCCCCC2)cc1C(=O)N1CCN(c2ccccc2F)CC1`, the survival was inactive: 69%.
As for `Cc1ccc(N(CC(O)Cn2c3ccccc3c3ccccc32)S(=O)(=O)c2ccc(F)cc2)cc1` (configuration not stated), the survival is inactive: 110%.
As for `Cc1c(CC(=O)N2CCCCC2)c(=O)oc2cc(O)ccc12`, the survival was inactive: 50%.
The result for `Cc1ccccc1Nc1sc(C(=O)c2ccccc2)c(N)c1S(C)(=O)=O` reads inactive: 99%; that for `CC(C)c1ccc(-c2noc(C3CCCN(C(=O)c4ccccc4)C3)n2)cc1` (configuration not stated), inactive: 86%; that for `CCOC(=O)c1ccc(OC(=O)c2cn(-c3ccc(C)cc3)c(=O)c3ccccc23)cc1`, inactive: 67%.
As for `Cc1cc(OCC(=O)N(Cc2ccc(N(C)C)cc2)Cc2ccco2)cc(C)c1Cl`, the survival was inactive: 52%.
The result for `COc1ccc(NC(=O)Cn2c(=O)n(Cc3ccco3)c(=O)c3sc4ccccc4c32)c(OC)c1` reads inactive: 80%.
As to `Cc1ccc(NC(=O)C2CCCN(C(=O)c3cnn(-c4ccccc4)c3-n3cccc3)C2)cc1` (configuration not stated), the survival was inactive: 80%.
The result for `COCCCN1C(=O)c2[nH]nc(-c3cc(C)ccc3O)c2C1c1ccc(F)cc1` (configuration not stated) reads inactive: 66%; that for `COc1ccc(CNC(=O)c2cc3sccc3n2Cc2ccc(F)cc2)cc1`, inactive: 75%; that for `COc1ccc(CNCCC(c2ccc(C)cc2)c2ccco2)cc1` (configuration not stated), inactive: 64%.
Then `O=C(Nc1noc2ccccc12)c1cccc(Cl)c1Cl`, with inactive: 86%.
With `Cc1ccccc1NC(=O)C(Cc1ccccc1)N1Cc2ccccc2C1=O` (configuration not stated), the survival is inactive: 92%.
The result for `Cc1cccc(OCC(=O)Nc2ccc(S(=O)(=O)Nc3onc(C)c3C)cc2)c1C` reads active: 40%; that for `COc1ccccc1-c1nc2c(c(SCc3cc(C)ccc3C)n1)Cc1c(CO)cnc(C)c1O2`, active: 41%; that for `Cc1ccc(CNC(=O)c2cc3c(=O)oc4ccc(C)cc4c3s2)cc1`, inactive: 91%.
Then `COc1ccc(N(CC(=O)N2CCN(c3ccccc3F)CC2)S(=O)(=O)c2c(C)noc2C)cc1`, with inactive: 119%; and `CCCNC(=O)Cn1nc(-c2ccc(C)c(C)c2)c2cnc3ccc(OC)cc3c21`, with inactive: 74%; and `COc1ccccc1NC(=O)Cn1cnc2ccc(S(=O)(=O)N3CCC(C)CC3)cc2c1=O`, with inactive: 66%.
Consider `COc1ccc2oc(=O)c(C(=O)NCCc3c(C)[nH]c4ccc(C)cc34)cc2c1`, for which the survival is active: 40%.
Then `Cc1ccc(-n2nc(C)c3c(C)cc(=O)n(CC(=O)Nc4cc(Cl)ccc4C)c32)cc1`, with inactive: 125%; and `Nc1ccc2oc(-c3ccccc3Br)nc2c1`, with inactive: 87% and active: 39%; and `Cc1cccn2c(=O)cc(COc3ccc(NC(=O)C(C)C)cc3)nc12`, with inactive: 87%.
Regarding `COC(=O)c1sccc1S(=O)(=O)N(CC(=O)Nc1ccccc1C)c1ccc(Cl)cc1`, the survival was inactive: 130%.
The result for `Cc1ccccc1NC(=O)CSc1nc2ccc(NC(=O)CCc3ccccc3)cc2s1` reads inactive: 71%; that for `O=C(O)CSc1nnnn1C1CCCCC1`, inactive: 56%; that for `CCc1nnc(NC(=O)CSc2nc3c([nH]c4ccccc43)c(=O)n2-c2ccc(F)cc2)s1`, inactive: 84%.
As to `Cc1ccc2oc(=O)c3cc(C(=O)Nc4ccc(C)c(F)c4)sc3c2c1`, the survival is inactive: 77%.
In the case of `COc1ccc(Cn2nnnc2C(c2cccs2)N2CCOCC2)cc1` (configuration not stated), the survival is inactive: 93%.
The result for `Cc1c(Cl)cccc1NC(=O)c1cc(S(=O)(=O)N2CCCCC2)cn1C` reads inactive: 99%.
The result for `CC(O)C(=O)NS(=O)(=O)c1ccccc1` (configuration not stated) reads inactive: 107%; that for `COc1ccc(NC(=O)Cn2nnc(C(=O)NCc3ccco3)c2N)c(OC)c1`, inactive: 108%; that for `COc1ccccc1NC(=O)c1c(C)cc(C)nc1SCC(=O)Nc1ccc(C)cc1`, inactive: 51%.
Consider `Cc1cc(Nc2cccc(Br)c2)n2c(nc3ccccc32)c1C#N`, for which the survival was inactive: 58%.
In the case of `Cc1ccc(N2CCN(C(=O)c3cn(C)c4ccc(S(=O)(=O)N5CCCC5)cc4c3=O)CC2C)cc1` (configuration not stated), the survival was inactive: 143%.
Then `CCOc1cc(C(Nc2cc(C)ccn2)c2ccc3cccnc3c2O)ccc1OC` (configuration not stated), with inactive: 146%; and `COC(=O)C1=C(C)NC(=O)/C1=C\c1ccc(C)cc1`, with inactive: 100%; and `CC(=O)Nc1ccc(S(=O)(=O)NCC2CCC(C(=O)NCc3ccccc3)CC2)cc1` (configuration not stated), with inactive: 71%.
As for `O=C(CSc1nc2c([nH]c3ccccc32)c(=O)n1-c1ccc(Cl)cc1)NC1CCCCC1`, the survival is inactive: 87%.
As for `CCCCNC(=O)Nc1ccc2c(c1)N(C)C(=O)c1ccccc1S2`, the survival is inactive: 59%.
With `CCc1ccc(NC(=O)N2CCN(Cc3nc4ccc(C)cc4o3)CC2)cc1`, the survival was inactive: 79%.
In the case of `COc1cccc(NC(=O)CN2C(=O)CC(c3ccco3)Sc3ccccc32)c1` (configuration not stated), the survival is inactive: 67%.
Turning to `Cc1cccc(C)c1NC(=O)C(=O)NCC(c1cccnc1)N1CCc2ccccc21` (configuration not stated), the survival is inactive: 62%.
Consider `COC(=O)c1sc(-c2ccccc2)cc1NC(=O)c1cccc(Cl)c1`, for which the survival is active: 34%.
The result for `COc1cc(NC(=O)c2cc3c(=O)n(Cc4ccco4)ccc3nc2C)cc(OC)c1OC` reads inactive: 75%; that for `O=C(C1CCC(Cn2c(=O)c3sccc3n(Cc3ccccc3F)c2=O)CC1)N1CCOCC1` (configuration not stated), inactive: 76%; that for `O=C(NCc1ccco1)c1ccc(S(=O)(=O)N2CCCc3ccccc32)cc1`, inactive: 82%.
The result for `CCOc1ccc(NC(=O)CN2C(=O)c3ccccc3Sc3ccc(C(=O)OC)cc32)cc1` reads inactive: 74%.
Consider `COc1cc(NC(=O)CSc2nc(-c3ccccc3)no2)cc(OC)c1`, for which the survival is inactive: 80%.
Then `Cc1cc(C)cc(-n2c(SCC(=O)NCc3ccc(F)cc3)nc3c([nH]c4ccccc43)c2=O)c1`, with inactive: 91%.
Then `Cc1ccc2c(c1)c(=O)c1ccccc1n2CCCC(=O)Nc1ccc(Cl)c(Cl)c1`, with active: 45%; and `CCOC(=O)N1CCc2c(sc(NCc3cccs3)c2C(=O)Nc2cc(Cl)ccc2OC)C1`, with inactive: 78%.
Then `COc1ccc(CN(C(=O)c2cc(=O)c3ccccc3o2)C2CCS(=O)(=O)C2)cc1OC` (configuration not stated), with inactive: 113%; and `Cc1ccc(S(=O)(=O)N2C(=S)SCC2(C)C)cc1`, with inactive: 73%; and `CCOC(=O)c1c(NC(=O)c2ccc(S(=O)(=O)N(CC(C)C)CC(C)C)cc2)sc2c1CCN(CC)C2`, with inactive: 66%.
As for `N#CC(C#N)=Cc1cn(-c2ccccc2)nc1-c1ccccc1`, the survival is inactive: 68%.
The result for `O=C(CSc1nccn1Cc1ccccc1)Nc1nc2ccccc2s1` reads inactive: 117%; that for `COc1ccc(OC)c(NC(=O)COCc2cc(-c3ccco3)on2)c1`, inactive: 49%; that for `O=C(Nc1cccc(C(F)(F)F)c1)c1cc2nc(-c3ccco3)cc(C(F)(F)Cl)n2n1`, inactive: 64%.
The result for `Cc1cc(C)c(Cn2c(=O)n(Cc3ccccc3)c(=O)c3c(C)c(C)sc32)c(C)c1` reads inactive: 49%; that for `Cc1ccc(S(=O)(=O)c2nnn(CC(=O)Nc3ccccc3C)c2N)cc1`, inactive: 95%; that for `COc1ccc(-n2nc(C(=O)N3CCCCC3)c3c4ccccc4n(C)c3c2=O)cc1Cl`, inactive: 127%.
The result for `COc1ccc(OCC(=O)N2CCN(S(C)(=O)=O)CC2)cc1` reads inactive: 67%; that for `CCOC(=O)c1cc(-c2ccccc2)n(CCC(=O)NCCc2ccc(C)cc2)c1C`, inactive: 71%; that for `C1CCC(Nc2nc(N3CCOCC3)nc(N3CCOCC3)n2)CC1`, inactive: 90%.
For `Cc1ccc(-n2c(C)cc(/C=C(/C#N)c3ccccc3)c2C)cc1`, the survival was inactive: 103%.
Then `COc1ccc(N2CCN(S(=O)(=O)c3cc(Br)cc4c3N(C(=O)C3CC3)CC4)CC2)cc1`, with inactive: 77%.
Regarding `Cc1ccc(NC(=O)Cn2c(=O)n(Cc3ccco3)c(=O)c3sc4ccccc4c32)c(C)c1`, the survival is inactive: 103%.
On to `CC(C)(C)OC(=O)N1CCC(c2c(C(=O)N3CCN(c4ccccn4)CC3)cnn2-c2cccc(F)c2)CC1`, for which the survival is inactive: 77%.
Take `CCOC(=O)c1c(C)c(-c2ccccc2)n(CC(=O)NCc2ccccc2)c1C`: the survival was inactive: 75%.
As for `COc1cc2c(=O)c(S(=O)(=O)c3ccc(C(C)C)cc3)cn(Cc3ccccc3C)c2cc1OC`, the survival was inactive: 64%.
Then `Cc1ccc(C(=O)NCC(c2ccco2)S(=O)(=O)c2ccccc2)cc1C` (configuration not stated), with inactive: 89%.
The result for `COCCNC(=O)Cn1cnc2sc(C)c(S(=O)(=O)N3CCN(c4ccccc4OC)CC3)c2c1=O` reads inactive: 145%; that for `CCc1nn2c(=O)cc(COC(=O)c3ccccc3NC(=O)COc3ccc(F)cc3)nc2s1`, inactive: 92%.
Turning to `COc1cc(CNCCSc2nnnn2C)ccc1OCc1ccc(F)cc1`, the survival was inactive: 122%.
Then `CC(CNC(=O)c1nnc(Cc2cccc(F)c2)o1)c1ccccc1` (configuration not stated), with inactive: 76%; and `CCOC(=O)c1[nH]c(C)c(CCC(=O)Nc2cccc(C(F)(F)F)c2)c1C`, with inactive: 87%; and `CCOc1ccc(-n2cc(-c3ccccc3)c3c(NC4CCCCC4)ncnc32)cc1`, with inactive: 78%.
As to `Cc1nn(-c2ccccc2)c(OC(=O)c2ccccc2Cl)c1S(=O)(=O)c1ccccc1`, the survival was inactive: 84%.
The result for `COc1ccc2c(c1)c1c(c(=O)n(-c3cccc(Cl)c3)c(=O)n1CC(=O)NCC1CCCO1)n2C` (configuration not stated) reads inactive: 83%.
Then `Cc1ccc(CNC(=O)CCS(=O)(=O)c2ccc3c(c2)CC(C)N3C(=O)C2CC2)cc1` (configuration not stated), with inactive: 91%; and `CCOc1ccc(-c2nnc(SCC(=O)NCc3ccc(C)cc3)nc2-c2ccc(OCC)c(OC)c2)cc1OC`, with inactive: 67%.
The result for `O=c1oc2ccc3ccccc3c2cc1-c1nnc(Nc2ccc(Cl)cc2Cl)s1` reads inactive: 83%; that for `COc1cccc(NC(=O)CSc2nc(=O)n(Cc3ccccn3)c3c2CCC3)c1`, inactive: 71%.
